The other results are listed elsewhere or left out.

This assay deals with PF3D7_0420300 AP2 domain 1 (GST-tagged). The assay can be described thus: gcPBM binding intensity (ln(normalized median fluorescence intensity)); higher = stronger DNA binding. The procedure, abridged:
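The binding buffer was 1× PBS containing 1% milk, 0.2 mg/ml BSA, 0.5% salmon testes DNA and 0.03% Triton X-100. In it, GST-tagged P. falciparum DNA-binding domains expressed in E. coli were applied for 1 h to an Agilent 4 × 180k array of primer-extended double-stranded 36-bp intergenic genomic probes plus negative controls. Binding intensity, read with Alexa488 anti-GST antibody and a 488 nm scan, is the highest Masliner-normalised natural-log median intensity across replicate spots of either probe orientation.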
In the case of “CTTTTTTATATCTCTACACACATTTATAACAATTTG [CACACA_site1398]”, the “gcPBM binding intensity (ln)” value amounted to 9.7. As to “TATATACATTTATATACACACCTATATTTATTTATA [CACACA_site7014]”, the “gcPBM binding intensity (ln)” value is 9.46. Turning to “ATTATATATATTTATGCACACAAAATATATTATATA [CACACA_site9244]”, the “gcPBM binding intensity (ln)” value was found to be 9.29. Take “TTTTTTTAACGGTGTGCACACAATATACAGAAAAAA [CACACA_site1415]”: the “gcPBM binding intensity (ln)” value stood at 9.48. In the case of “TATATTGAAAATAAAACATGCAATCACTCATACATA [TGCATGCA_site248]”, the “gcPBM binding intensity (ln)” value worked out at 9.36. With “CAACAATTTCGTCATACACACATTCAGAATCTATAT [CACACA_site7171]”, the “gcPBM binding intensity (ln)” value turned out to be 9.57. In the case of “ATGTACCTATTTCATACACACACACCCACAAACAAA [CACACA_site8232]”, the “gcPBM binding intensity (ln)” value stood at 10. Regarding “TATACATTTATGTACACACACATATAGGTATATTTA [CACACA_site7408]”, the “gcPBM binding intensity (ln)” value amounted to 9.61. As for “AAAATATAATATATTACACACATATATTTTATAAGT [CACACA_site668]”, the “gcPBM binding intensity (ln)” value turned out to be 9.52. Consider “TTTTAGAGTGGTATATATTAATTTTTAATAAAAAAA [CACACA_negctrl_site1652]”, for which the “gcPBM binding intensity (ln)” value was 8.73. The figure for “ATAATATATACTATATGTACATATCTTTTCCTCTTT [XGTACX_site5553]” is 9.5; for “TTTTTCATAAAAAAATAAAAAAAATTAACATAGAAA [XGTACX_negctrl_site11]” it is 8.96. Take “AATAAAAGAAGACAGAGTACACAGGTTGTATTTTCC [XGTACX_site7208]”: the “gcPBM binding intensity (ln)” value amounted to 9.51. With “TGTGCATAAATTTATGCACACATAAAAAAAAAAAAA [CACACA_site8954]”, the “gcPBM binding intensity (ln)” value came to 9.14. The figure for “ATAGTATCTGGTAGCTGTACGAGTCGTAGAGTGTAG [XGTACX_site2030]” is 9.19. On to “TATAATAATAATTATTGTACGATTAGGTTAATTCAT [XGTACX_site1984]”, for which the “gcPBM binding intensity (ln)” value is 9.16. As for “AGAAAGGTGGTATTAAAAGAATAACCTATGAATAAA [GTGCAC_negctrl_site325]”, the “gcPBM binding intensity (ln)” value is 9.28. For “TATGTATTTTTTAAGTGTACCTATATATATATATAT [XGTACX_site7934]”, the “gcPBM binding intensity (ln)” value came out at 9.36. Turning to “TGGGAAGGGTGGGAAACTTTATCAAAAACTTATTAC [GTGCAC_negctrl_site16]”, the “gcPBM binding intensity (ln)” value is 9.48. Consider “AAAAAATTATACCTTTGTACATAAATAAAATATTAT [XGTACX_site418]”, for which the “gcPBM binding intensity (ln)” value came to 9.07. As to “TATGTATATATTTACGCATGCTACTCTATTTTGAGA [TGCATGCA_site990]”, the “gcPBM binding intensity (ln)” value worked out at 9.1. As to “ACCCATTGCTCACGTGCACACATAGAAAAATAATTC [CACACA_site4389]”, the “gcPBM binding intensity (ln)” value turned out to be 9.52. The figure for “ATAACATAAGGAAATACACACATATATAAGTATATA [CACACA_site778]” is 9.74; for “AGGTTTCATTTAGCATGTACATATTATAAAAATTGT [XGTACX_site8448]” it is 9.33. As for “AAGATTACTTATATATGTACACATAATACAAATGTC [XGTACX_site520]”, the “gcPBM binding intensity (ln)” value is 9.14. Turning to “TCTGTTAATATTTATACACACATATATATATATATA [CACACA_site1139]”, the “gcPBM binding intensity (ln)” value worked out at 9.53. Regarding “TTGTTCTATTTAAGTAGTACATACACACACATATAC [XGTACX_site8484]”, the “gcPBM binding intensity (ln)” value is 9.9. Turning to “ACATATATATATTCTACACACTTATAATATAATACA [CACACA_site2461]”, the “gcPBM binding intensity (ln)” value came out at 9.61.

Consider “TTTCGTTCATAAAAAAGTACATATGAGCAAAAGGTA [XGTACX_site8936]”, for which the “gcPBM binding intensity (ln)” value was 9.19. Consider “TATATATATATATATAGTACATATTTATATATGAAA [XGTACX_site8488]”, for which the “gcPBM binding intensity (ln)” value was 9.22. Turning to “GAATTAAAATAATACGTACACACATGTATAATACAT [CACACA_site1004]”, the “gcPBM binding intensity (ln)” value was determined as 9.57. Turning to “ACTAAACTAATATGTACACACATATAACATTAATTT [CACACA_site7128]”, the “gcPBM binding intensity (ln)” value worked out at 9.53. Consider “CACAATACTTTCATCACACATATATATATATATATA [CACACA_site4677]”, for which the “gcPBM binding intensity (ln)” value was found to be 9.32. For the sequence “AAATAATATTTTTTTTTTTTTTTTTTTTTATGTTAT [CACACA_negctrl_site809]”, the “gcPBM binding intensity (ln)” value turned out to be 9.15. The same measure for ATACAGTTGCATATGGTGCACGAATAATACACCTAT: 9.21.

Consider “ATAGTCTTAATGACTACACACCTAACTATGCATGCA [CACACA_site5084]”, for which the “gcPBM binding intensity (ln)” value amounted to 9.3. For “TGGTAGTATATCATAGAAATCATTGTATAACAAATA [XGTACX_negctrl_site569]”, the “gcPBM binding intensity (ln)” value amounted to 9.21. Consider “ATTTTTCTTTTTAATACACACAAAAGTGATACAAAC [CACACA_site3923]”, for which the “gcPBM binding intensity (ln)” value came to 9.31. Take “TGTATTATATATACACAAATATTTATGTGTGTGTTT [XGTACX_negctrl_site475]”: the “gcPBM binding intensity (ln)” value worked out at 9.81. The figure for “TTTTTTTGTATTTGTTTATTTAATGATAAAATTAAA [CACACA_negctrl_site225]” is 9.03; for “AATATAAACAAACACACACACATATATATATATATT [CACACA_site5592]” it is 10.1. On to “ATGTCATATAATAGTACACACATGAAAATATAAATA [CACACA_site3215]”, for which the “gcPBM binding intensity (ln)” value came to 9.66. The same measure for “ATAAAAAAAGGACACACACACATATATTTATTTATA [CACACA_site7438]”: 10.1; for “AAAAAAAAAAAAAATAGTACAATACCCAAATATAAC [XGTACX_site6684]”: 9.8; for “ACTATTAAAATGAATACACACAAATATAAAAATATA [CACACA_site4145]”: 9.66. The figure for “GGTAGGGATTATACCACACACACATACACATAAATA [CACACA_site3179]” is 9.89. On to “ACGCTACATAAATACGTGCACATCTTTTTGTGTATA [GTGCAC_site9675]”, for which the “gcPBM binding intensity (ln)” value is 9.29. Regarding “CATCTTATATAATCATGTACATATAGAGACTTCTTT [XGTACX_site7685]”, the “gcPBM binding intensity (ln)” value was determined as 9.19. For “TTTTTCTTACATGAGTGTACACACTTTTTTTCAGAA [XGTACX_site138]”, the “gcPBM binding intensity (ln)” value was found to be 9.29. Take “GGGGGAATTTACATGGGTACACATGTATTAAAAAAT [XGTACX_site4130]”: the “gcPBM binding intensity (ln)” value worked out at 9.43.

Consider “TTATATGTATGGAGGTTTTTGTATATAGATATATAG [CACACA_negctrl_site177]”, for which the “gcPBM binding intensity (ln)” value turned out to be 9.29.

Turning to “CATATATATTTGTTCACACACACACTAATAAAAAAA [CACACA_site8787]”, the “gcPBM binding intensity (ln)” value was found to be 9.92.

On to “TGGAGGAACCTCATATGTACGTATAAATATATATTT [XGTACX_site5603]”, for which the “gcPBM binding intensity (ln)” value worked out at 9.3. Turning to “TTAAAGCACCCATGCACACACACAAAGGAAAAGAAA [CACACA_site233]”, the “gcPBM binding intensity (ln)” value was determined as 9.87.

Turning to “TGATAAATTAAAAATTGTACTATTATAATAATATAT [XGTACX_site6615]”, the “gcPBM binding intensity (ln)” value is 8.94. The figure for “TTTATATAAATTTATTCACACAACTAATTTTTTAAA [CACACA_site4848]” is 8.94.

The values above are taken from the supplement of paper PMC11417369.
